# Source: the supplement of paper PMC3656093
# ± gives the standard deviation of the averaged measurements. Over roughly 1,900 compounds, “CD40L-induced NF-kB luciferase activity, plate-corrected, relative to DMSO (0) and IKK inhibitor VII (-100) controls” has its median near 0.032; the lowest 2% begin near -26. Some of the results follow.
# Tested on: BL2-NFkB-Luc
# Experiment: CD40L-induced NF-kB luciferase activity, plate-corrected, relative to DMSO (0) and IKK inhibitor VII (-100) controls (% normalized activity); higher = more NF-kB reporter activity (less inhibition)
# Conditions: 9.4 µM; stimulus: tCD40L 64 ng/ml; 4.5 h
# Method: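 BL2 B cells with a stable NF-kB response-element luciferase reporter (BL2-NFkB-Luc), 384-well. Cells were pre-incubated with compound at 9.4 uM for 1 h at 37 C, then stimulated with 64 ng/ml trimerized CD40L for 4.5 h; luciferase was read with Steady-Glo. Signal was normalised per plate in Genedata (median DMSO neutral control = 0, median IKK inhibitor VII at 50 uM = -100) with Assay Median plate-pattern correction; duplicate plates.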
row,Compound,CD40L-induced NF-kB luciferase activity
1,COc1ccc(C2C3CCCCC3(O)CCN2C(=O)c2cccs2)cc1 (stereo not given),-4.72 ± 0.72
2,NC(=O)c1c(-c2ccccc2)oc2ccc(O)cc12,7.57 ± 1.8
3,CCn1c(C)cc2c(c1=O)C(c1ccccc1)C(C(=O)OC)=C(N)O2 (stereo not given),-4.6 ± 5.5
4,CCCC(=O)Nc1ccc(OCC(O)CNC(C)C)c(C(C)=O)c1 (stereo not given),-2.11 ± 0.99
5,CC(=O)OCC(=O)[C@@]12OC3(CCCC3)O[C@@H]1C[C@H]1[C@@H]3CCC4=CC(=O)C=C[C@]4(C)[C@@]3(F)[C@@H](O)C[C@@]12C,-20.2 ± 1.1
6,CS(=O)(=O)c1cccc(C(=O)Oc2ccccc2)c1,2.62 ± 9
7,CCC(=O)Oc1ccc(C(=O)Nc2ccc([N+](=O)[O-])cc2)cc1,-5.48 ± 0.55
8,COCCN(CCOC)Cc1c(C)[nH]c2c(C)c(C)ccc2c1=O,-3.25 ± 1.1
9,Cc1cnc(N)c2c(=O)oc3ccccc3c12,41.69 ± 0.28
10,Cc1[nH]c2ccccc2c1C(=O)C(=O)NCc1ccco1,1.92 ± 1.9
11,Cc1ccc(S(=O)(=O)NC(C(=O)Oc2cc3oc(=O)cc(C)c3cc2Cl)C(C)C)cc1 (stereo not given),-3.08 ± 0.98
12,CCOc1ccc2nc(N/C(N)=N/S(C)(=O)=O)nc(C)c2c1,23.4 ± 2.7
13,CC1(c2ccccc2)CC(C)(C)N2C(=O)C(=O)c3cccc1c32 (stereo not given),2.28 ± 6.5
14,CCOc1ccc(C(NC(C)=O)c2ccc(OC)c(OC)c2)cc1 (stereo not given),4.36 ± 0.088
15,CC1=CC(=O)c2ccccc2C1=O,0.889 ± 1.8
16,CC(C)(C)c1csc(NN=Cc2cccnc2)n1,0.734 ± 7.6
17,CN(C)CCOc1ccccc1Cc1ccccc1,0.196 ± 5
18,CC1/C(=C\c2ccc(Cl)cc2)C(=O)C2CC1C2(C)C (stereo not given),3.76 ± 2.7
19,COc1ccc(S(=O)(=O)NC(Cc2cnc[nH]2)C(=O)O)cc1 (stereo not given),0.792 ± 2.4
20,COc1ccccc1/C=C/C(=O)OCCN1CCOCC1,2.92 ± 4.6
21,CCCCC1C(=O)N(c2ccccc2)N(c2ccccc2)C1=O,1.43 ± 1.1
22,C#CCN1C(=O)C(O)(CC(=O)c2ccc(OC)c(OC)c2)c2ccccc21 (stereo not given),-10.7 ± 1.5
23,Clc1ccc(COC(Cn2ccnc2)c2ccc(Cl)cc2Cl)cc1 (stereo not given),-9.29 ± 1.8
24,Cc1ccc(S(=O)(=O)N[C@@H](C)C(=O)N2CCC(C(=O)N3CCC[C@H]3C(=O)O)CC2)cc1,-9.89 ± 4
25,COC(=O)C1=C(C)N(Cc2ccco2)C(=O)/C1=C\c1ccc([N+](=O)[O-])cc1,0.281 ± 1.1

row,Compound,CD40L-induced NF-kB luciferase activity
1,CC(C)(C)C(=O)NC(=S)Nc1sc2c(c1C(N)=O)CCC2,47.45 ± 0.25
2,O=C(O)CCCCCNC(=O)Nc1ccc2c(c1)OCCO2,8.86 ± 3.5
3,O=C(CC(NC(=O)OCc1ccccc1)C(=O)O)OCc1ccccc1 (stereo not given),-14.2 ± 13
4,Cc1cccc2c(C(=O)O)cc(-c3cccnc3)nc12,-1.99 ± 8.5
5,O=C1CCCN1C(=O)CCC(=O)N1CCCC1=O,0.218 ± 1.1
6,COc1ccc(C2NC(=O)c3ccccc3O2)c(OC)c1OC (stereo not given),-3.71 ± 0.48
7,Nc1ccc(N=Nc2ccccc2)c(N)n1,51.91 ± 0.45
8,CCN(CC)C(=O)N1CCN(C)CC1,-0.022 ± 1.5
9,CC(C)COc1ccc(Cc2cnc(N)nc2N)cc1,1.68 ± 7.6
10,CC12CCC(C(=O)N(CCC#N)CCC#N)(CC1=O)C2(C)C (stereo not given),-5.66 ± 4.4
11,COc1ccc(C2c3c(n[nH]c3C)CC(C)(O)C2C(C)=O)cc1OC (stereo not given),2.22 ± 1.9
12,CCN(CCCc1ccccc1)CCCc1ccccc1,-5.18 ± 5.5
13,CC[C@]1(O)C[C@@H]2CN(CCc3c([nH]c4ccccc34)[C@@](C(=O)OC)(c3cc4c(cc3OC)N(C)[C@H]3[C@@](O)(C(=O)OC)[C@H](OC(C)=O)[C@]5(CC)C=CCN6CC[C@]43[C@@H]65)C2)C1,-54.7 ± 1.7
14,O=C(O)CCCCCCNC(=O)c1cncc(O)c1,-4.33 ± 1.9
15,CC1(C)C(=O)OC(C(=O)c2ccc(Cl)cc2)C(C)(C)C1=O (stereo not given),-1.2 ± 6.3
16,Nc1ccc2nc(Cc3ccccc3)[nH]c2c1,14.3 ± 4.9
17,CN(C)CCC(c1ccccc1)c1ccccn1 (stereo not given),-6.28 ± 5.6
18,N/C(=N\OC(=O)/C=C/c1ccccc1)c1ccc(Br)cc1,25.8 ± 4.5
19,CC(=O)Nc1ccccc1C(=O)C(=O)Nc1ccccc1,12.6 ± 1.1
20,Cc1ccccc1OCC(O)CN1CCN(C)CC1 (stereo not given),0.245 ± 1.5
21,CC(=O)OC(C)C[N+](C)(C)C (stereo not given),-11.8 ± 0.65
22,CCCCOc1ccc(CC(=O)NO)cc1,-7.75 ± 8.3
23,O=C(Cc1ccccc1)NNC(=O)Cc1ccccc1,1.84 ± 4.9
24,C=CCc1ccccc1OCC(O)CNC(C)C (stereo not given),1.14 ± 1.7
25,C=CC1=C(C(=O)O)N2C(=O)C(NC(=O)Cc3ccccc3)C2SC1 (stereo not given),1.93 ± 1.4

row,Compound,CD40L-induced NF-kB luciferase activity
1,CCOCCCNCc1cn(-c2ccc(F)cc2F)nc1-c1ccccc1C,-1.93 ± 4.1
2,CCOC(=O)c1cccc(P(C)(C)=O)c1,-6.36 ± 1.2
3,COc1c(C=O)c(CCN(C)C(=O)c2ccc(F)cc2)cc2c1OCO2,-2.45 ± 4.7
4,CC1(C)Cc2ccccc2-c2nc(-c3ccccc3)oc(=O)c21,2.15 ± 0.84
5,CC(=O)Oc1c2occc2cc2ccc(=O)oc12,-0.883 ± 7.4
6,COc1cc(C2C(C(=O)c3ccc(C)o3)=C(O)C(=O)N2Cc2cccnc2)ccc1O (stereo not given),1.73 ± 4.7
7,O=c1nc2n(c3c1oc1ccccc13)Cc1ccccc1-2,79 ± 5.7
8,COCCCC/C(=N/OCCN)c1ccc(C(F)(F)F)cc1,-0.271 ± 6.8
9,COc1ccc(CCNC(=S)NC(=O)/C=C/c2ccc(C)cc2)cc1OC,-1.18 ± 1.3
10,COc1ccccc1C(CC(=O)Nc1ccccc1C)c1ccc(OC(C)C)cc1 (stereo not given),-11.4 ± 4.7
11,Cc1ccc2c(c1)C(O)(c1c(C)[nH]c3ccccc13)C(=O)N2 (stereo not given),3.92 ± 8.9
12,OCCC1CN(Cc2ccccc2-c2ccco2)CCN1C1CCCC1 (stereo not given),-1 ± 8.2
13,Clc1cc(-c2ccc(C=Nn3cnnc3)o2)ccc1Br,10.1 ± 5.1
14,Cc1c(OC(=O)CNC(=O)OC(C)(C)C)ccc2c3c(c(=O)oc12)CCC3,3.02 ± 3.5
15,C=CCC1(O)C(=O)N2C(=C1C(=O)N1CCOCC1)c1ccccc1CC2(C)C (stereo not given),-4.07 ± 3.1
16,O=C(/C=C/Sc1ccccc1)c1ccccc1,-1.27 ± 2.9
17,CCCCC[C@H](O)/C=C/[C@@H]1[C@@H](CCCCCCC(=O)O)[C@@H](O)C[C@H]1O,-29.5 ± 5.2
18,COC(=O)CN1CC(=O)N(c2ccccc2)C1=S,-1.87 ± 2.5
19,O=C(O)C1CSC(c2ccc3c(c2)OCO3)N1 (stereo not given),3.84 ± 4.1
20,COc1cccc(N2C(=O)CC(c3c[nH]c4ccccc34)C2=O)c1 (stereo not given),7.818 ± 0.02
21,Cn1c(=O)c2c(ncn2CC(O)CO)n(C)c1=O (stereo not given),-3.18 ± 3.4
22,CC12CCCCN1CCCc1c2[nH]c2ccccc12 (stereo not given),-1.68 ± 4.1
23,NC(=O)c1cccnc1,-3.39 ± 4
24,COc1ccccc1NC(=O)N1CCc2[nH]c3ccc(Cl)cc3c2C1,-0.849 ± 1.2
25,O=C1Nc2ccc3sc4ccccc4c3c2C1=O,61.6 ± 3.2
